Results: ChEMBL document CHEMBL4888484, “Replenishing the malaria drug discovery pipeline: Screening and hit evaluation of the MMV Hit Generation Library 1 (HGL1) against asexual blood stage Plasmodium falciparum ,using a nano luciferase reporter read-out” (2022)
Screen size: about 150,000 compounds; about 540 (0.36%) showed an effect of 50% or more. Some of the results follow.

system: Plasmodium falciparum; assay: Primary screen in NF54 nanoGlo assay, in single point, at 2uM, 72h; a lower Z score goes with more inhibition; type: functional, Erythrocyte; conditions: timepoint 72 hour

In order of falling “% Inhibition” value:
1. O=C(COC(=O)[C@@H](O)C1CCOCC1)NCCOc1ccccc1  10%
2. Cc1nn(C)cc1CN(Cc1ccncc1)C1CCCCC1  8%
3. CCCN(C)c1nc(-c2ccccc2)nc2c1CN(S(=O)(=O)c1cc(Cl)ccc1Cl)CC2  3%
4. CC(C)(C)c1ccc2c(c1)N(Cc1cccc(C(=O)NCc3ccc(F)cc3)c1)C(=O)CO2  2%
5. Cc1nc(C#N)c(NCCc2nc(-c3ccccc3)no2)o1  1%
6. COc1cc(C(=O)N2CCC[C@H](c3nc4ccccc4s3)C2)ccc1OCC(=O)N1CCOCC1  -1%
7. Cc1c(C(=O)O)cnn1-c1ccncc1  -3%
8. COCCn1cc(CNc2cc(C(C)C)ncn2)c(=O)[nH]c1=O  -4%
9. Cc1nc(NC(=O)c2ccsc2)n(C)n1  -5%
10. COCCn1cnnc1[C@H](C)NCc1n[nH]c(C)c1Cl  -5%
11. C[C@@H](CNC(=O)CCCOCCc1ccccc1)N1CCN(C)CC1  -5%
12. Cn1c(CO)nnc1C1CCN(C(=O)c2n[nH]c(=O)c3ccccc23)CC1  -6%
13. O=C(c1ccc2c(c1)CCO2)N1CCc2[nH]ncc2C1  -7%
14. CC(Cc1cnc[nH]1)C(=O)N1CCC[C@H]1C(=O)N(C)C (stereo partly specified)  -7%
15. O=C(Nc1cccc(-c2cscn2)c1)C1CCN(C(=O)[C@H]2CCCO2)CC1  -8%
16. Cc1ccc(N2C[C@]34C=C[C@H](O3)C(C(=O)N(C)Cc3ccncn3)C4C2=O)cc1C (stereo partly specified)  -8%
17. CC(C)(C)n1ncc2c(=O)[nH]c(N[C@@H](CF)c3ccc(F)cc3)nc21  -9%
18. COc1ccc(C(=O)N(Cc2ccc(-c3cccc(C(F)(F)F)c3)o2)[C@H]2CCS(=O)(=O)C2)cc1  -10%
19. CCN(C(=O)c1ccc(C)nc1)c1cccnc1C  -11%
20. CCOc1ccccc1CN1CCC2(CCC(=O)N(Cc3ccncc3)C2)CC1  -13%
21. COc1ccccc1CNC(=O)CC1CCN(C(=O)c2ccc3oc(-c4ccccc4)nc3c2)CC1  -13%
22. c1ccc2c(c1)cnn2-c1ccc(Oc2ncnc3c2CCC3)cc1  -15%
23. Cc1cc(C(=O)NC(C)(C)c2c[nH]nn2)ns1  -19%

In order of falling Z score:
1. Cc1cc(C(=O)NC(C)(C)c2c[nH]nn2)ns1  3.7
2. CCOc1ccccc1CN1CCC2(CCC(=O)N(Cc3ccncc3)C2)CC1  2.04
3. c1ccc2c(c1)cnn2-c1ccc(Oc2ncnc3c2CCC3)cc1  1.74
4. COc1ccccc1CNC(=O)CC1CCN(C(=O)c2ccc3oc(-c4ccccc4)nc3c2)CC1  1.5
5. CCN(C(=O)c1ccc(C)nc1)c1cccnc1C  1.43
6. COc1ccc(C(=O)N(Cc2ccc(-c3cccc(C(F)(F)F)c3)o2)[C@H]2CCS(=O)(=O)C2)cc1  1.34
7. CC(C)(C)n1ncc2c(=O)[nH]c(N[C@@H](CF)c3ccc(F)cc3)nc21  1.26
8. Cc1ccc(N2C[C@]34C=C[C@H](O3)C(C(=O)N(C)Cc3ccncn3)C4C2=O)cc1C (stereo partly specified)  1.01
9. O=C(c1ccc2c(c1)CCO2)N1CCc2[nH]ncc2C1  0.96
10. C[C@@H](CNC(=O)CCCOCCc1ccccc1)N1CCN(C)CC1  0.94
11. COCCn1cnnc1[C@H](C)NCc1n[nH]c(C)c1Cl  0.85
12. CC(Cc1cnc[nH]1)C(=O)N1CCC[C@H]1C(=O)N(C)C (stereo partly specified)  0.85
13. O=C(Nc1cccc(-c2cscn2)c1)C1CCN(C(=O)[C@H]2CCCO2)CC1  0.75
14. Cn1c(CO)nnc1C1CCN(C(=O)c2n[nH]c(=O)c3ccccc23)CC1  0.74
15. COCCn1cc(CNc2cc(C(C)C)ncn2)c(=O)[nH]c1=O  0.59
16. Cc1nc(NC(=O)c2ccsc2)n(C)n1  0.52
17. Cc1c(C(=O)O)cnn1-c1ccncc1  0.34
18. COc1cc(C(=O)N2CCC[C@H](c3nc4ccccc4s3)C2)ccc1OCC(=O)N1CCOCC1  0.23
19. Cc1nc(C#N)c(NCCc2nc(-c3ccccc3)no2)o1  -0.11
20. CC(C)(C)c1ccc2c(c1)N(Cc1cccc(C(=O)NCc3ccc(F)cc3)c1)C(=O)CO2  -0.27
21. CCCN(C)c1nc(-c2ccccc2)nc2c1CN(S(=O)(=O)c1cc(Cl)ccc1Cl)CC2  -0.37
22. Cc1nn(C)cc1CN(Cc1ccncc1)C1CCCCC1  -1.12
23. O=C(COC(=O)[C@@H](O)C1CCOCC1)NCCOc1ccccc1  -1.84
